Legend:
[1] = system: Peripheral Blood Mononuclear Cells (PBMCs); test: Cytokine concentration in Cynomolgus macaque PBMC cultures (IL-2, IL-6, IL-10, IL-13, TNF-α, IFN-γ); assay type: cell-based; settings: PBMC from Cynomolgus macaques, 15 wpi, culture with the peptide or mitogen, mean ± SD
[2] = system: Peripheral blood mononuclear cells (PBMC); test: Lymphocyte (PBMC) proliferation, stimulation index, patients; assay type: cell-based, human; settings: for Stimulation index, Week 0 mean (SD): PBMCs from patient subjects collected at week 0 (before UB 311 immunization); for Stimulation index, Week 0 mean (SD) / Stimulation index, Week 16 mean (SD): coculture with the peptide; for Stimulation index, Week 16 mean (SD): PBMCs from patient subjects collected at week 16 (after UB 311 immunization); for Stimulation index, Difference mean (SD): week 16 vs week 0, PBMCs from patient subjects
Description: Peripheral blood mononuclear cells (PBMC) from patients with AD were isolated by Ficoll-hypaque gradient centrifugation. […] Cultures were incubated at 37° C. with 5% CO2 for 72 hours, and then 100 μL of supernatant was removed from each well and frozen at −70° C. for cytokine analysis. Ten μL of culture medium containing 0.5 μCi of ^3H-thymidine (^3H-TdR, Amersham, Cat No. TRK637) was added to each well and incubated for 18 hr, followed by detection of radioisotope incorporation by liquid scintillation counting. The mitogen phytohemagglutinin (PHA) was used as a positive control for lymphocyte proliferation. Cells cultured alone without Aβ peptide or PHA mitogen were used as the negative and positive controls. The stimulation index (SI) was calculated as mean counts per min (cpm) of triplicate experimental cultures with Aβ peptide divided by mean cpm of triplicate negative control cultures; a SI>3.0 was considered a significant proliferation response.
Peripheral blood mononuclear cell samples were isolated from whole blood collected at week 0 (baseline) and week 16 (4 weeks after the third dose) and then cultured in the absence or presence of various Aβ peptides.

[3] = system: Peripheral blood mononuclear cells (PBMC); test: Cytokine concentrations in patient PBMC cultures (IL-2, IL-6, IL-10, TNF-α, IFN-γ); assay type: cell-based, human
Description: Cytokine analyses (IL-2, IL-6, IL-10, TNF-α, IFN-γ) from the PBMC cultures were performed on aliquots of culture medium with cells alone or in the presence of Aβ peptide domains or PHA. Human-specific cytokine sandwich ELISA kits (U-CyTech Biosciences, Utrecht, The Netherlands) were used to determine the concentrations (pg/mL) of individual cytokines following the manufacturer's instructions. The PBMC samples collected at week 0 and week 16 were also tested for cytokine secretion either with cells alone (negative control) or in the presence of Aβ peptides, p1412 (non-relevant peptide) or PHA mitogen (positive control) after being cultured for 3 days. The quantifiable range of the kit is between 5 and 320 pg/mL. Any measured concentration below 5 pg/mL or above 320 pg/mL was indicated as below quantification limit (BQL) or above quantification limit (AQL), respectively. However, for statistical considerations, BQL or AQL was replaced with the lower (5 pg/mL) or upper (320 pg/mL) quantifiable limit, respectively.
In order to assess the change of cell-mediated immune response after immunization, the change of mean cytokine concentrations from baseline to week 16 was compared with that of the negative controls and examined by paired Wilcoxon signed-rank test.

baboon anti-Aβ antibody = test: Epitope mapping by competitive inhibition ELISA with hyperimmune baboon sera; assay type: binding, baboons
[4] = patient PBMCs collected at week 0, coculture with the peptide, quantifiable range 5-320 pg/mL
[5] = patient PBMCs collected at week 16, coculture with the peptide, quantifiable range 5-320 pg/mL

Substance: phytohemagglutinin [PHA]
- Cytokine concentration, IL-2 ([1]; vaccine dose 150 μg): 96.1 ± 13.3 pg/mL
- Cytokine concentration, IL-6 ([1]; vaccine dose 150 μg): 70.6 ± 15.7 pg/mL
- Cytokine concentration, TNF-α ([1]; vaccine dose 150 μg): 96.1 ± 22.2 pg/mL
- Cytokine concentration, IL-2 ([1]; vaccine dose 750 μg): 97.5 ± 6.6 pg/mL
- Cytokine concentration, IL-6 ([1]; vaccine dose 750 μg): 66.2 ± 7.3 pg/mL
- Cytokine concentration, TNF-α ([1]; vaccine dose 750 μg): 89.0 ± 13.7 pg/mL
- Stimulation index, Week 0 mean (SD) [2]: 28.73 (14.24)
- Stimulation index, Week 16 mean (SD) [2]: 27.75 (32.85)
- Lymphocyte proliferation response to agent added to culture ([2]; patient PBMC, week 0 and week 16): positive proliferation responses
- Stimulation index, Difference mean (SD) [2]: −0.98 (26.57)
- Cytokine secretion by patient PBMC in response to agent ([3]; change from baseline to week 16 / vs cells alone): significant increases in cytokine production
- Mean cytokine concentration, IFN-γ (Th1), Week 0 [3, 4]: >320.00 pg/mL
- Mean cytokine concentration, IL-6 (Th2), Week 0 [3, 4]: >320.00 pg/mL
- Mean cytokine concentration, IL-10 (Th2), Week 0 [3, 4]: 173.83 pg/mL
- Mean cytokine concentration, TNF-α (Both), Week 0 [3, 4]: >313.01 pg/mL
- Mean cytokine concentration, IFN-γ (Th1), Week 16 [3, 5]: >318.91 pg/mL
- Mean cytokine concentration, IL-6 (Th2), Week 16 [3, 5]: >320.00 pg/mL
- Mean cytokine concentration, IL-10 (Th2), Week 16 [3, 5]: >162.77 pg/mL
- Mean cytokine concentration, TNF-α (Both), Week 16 [3, 5]: >300.87 pg/mL

Substance: SEQ ID NO: 67: LVFF AEDVGSNKGAIIGLMVGGVVIA (LVFFAEDVGSNKGAIIGLMVGGVVIA; PEPTIDE (1)..(26) Abeta 17-42 or APP 770(L688-A713); listed as Homo sapiens) [Aβ17-42]
- Percent (%) Inhibition ELISA after peptide pre-absorption of sera (baboon anti-Aβ antibody; peptide concentration 0.5 μg/mL): 9%
- Percent (%) Inhibition ELISA after peptide pre-absorption of sera (baboon anti-Aβ antibody; peptide concentration 1 μg/mL): 10%
- Percent (%) Inhibition ELISA after peptide pre-absorption of sera (baboon anti-Aβ antibody; peptide concentration 2 μg/mL): 5%
- Percent (%) Inhibition ELISA after peptide pre-absorption of sera (baboon anti-Aβ antibody; peptide concentration 8 μg/mL): 0%
- Percent (%) Inhibition ELISA after peptide pre-absorption of sera (baboon anti-Aβ antibody; peptide concentration 32 μg/mL): 7%
- Stimulation index, Week 0 mean (SD) [2]: 0.96 (0.34)
- Stimulation index, Week 16 mean (SD) [2]: 1.04 (0.29)
- Stimulation index, Difference mean (SD) [2]: 0.08 (0.49)
- Mean cytokine concentration, IFN-γ (Th1), Week 0 [3, 4]: 9.67 pg/mL
- Mean cytokine concentration, IL-2 (Th1), Week 0 [3, 4]: 24.59 pg/mL
- Mean cytokine concentration, IL-6 (Th2), Week 0 [3, 4]: >44.55 pg/mL
- Mean cytokine concentration, IL-10 (Th2), Week 0 [3, 4]: 5.34 pg/mL
- Mean cytokine concentration, TNF-α (Both), Week 0 [3, 4]: 15.60 pg/mL
- Mean cytokine concentration, IFN-γ (Th1), Week 16 [3, 5]: 13.58 pg/mL
- Mean cytokine concentration, IL-2 (Th1), Week 16 [3, 5]: 29.15 pg/mL
- Mean cytokine concentration, IL-6 (Th2), Week 16 [3, 5]: 46.90 pg/mL
- Mean cytokine concentration, IL-10 (Th2), Week 16 [3, 5]: 5.56 pg/mL
- Mean cytokine concentration, TNF-α (Both), Week 16 [3, 5]: 24.78 pg/mL

— patent US9102752B2, “Peptide vaccine for prevention and immunotherapy of dementia of the Alzheimer's type” (United Biomedical, Inc., priority 2013, dated 2015)
